# Variants at the background level are over-represented here.
# B1: TPR 5TU (parent)
# chain: GGAUCUUCUCGAUCUAACAAAAAAGACAAAUCUGCCACAAAGCUUGAGAGCAUCUUCGGAUGCAGAGGCGGCAGCCUUCGGUGGCGCGAUAGCGCCAACGUUCUCAACUAUGACACGCAAAACGCGUGCUCCGUUGAAUGGAGUUUAUCAUG
# Variants of: B1
# Test: polymerase ribozyme fitness, log enrichment relative to wild type (log ratio); higher = more active; in vitro selection for triplet polymerase activity
# Summary of the method: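 PCR was used to build mutant libraries for each subunit of a heterodimeric triplet polymerase ribozyme, which were then transcribed. A single in vitro selection round, in triplicate, used a frozen incubation at −7 °C and recovered extended constructs by gel excision, streptavidin beads and RT-PCR. Fitness is the logarithm of genotype enrichment relative to wild-type enrichment, averaged over replicates with inverse-variance weights. The logarithm is base 2, and after Illumina sequencing only genotypes with ≥10 input reads and ≥1 read per output were kept.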
row,Variant,polymerase ribozyme fitness (log ratio)
1,GGAUCUUCUCGAUCUAACAAAAAAUACAAAUCUGCCACAAAGAUUGAGAGCAUCUACGGAUGCAGAGGCGGCAGGCUUCGGUGGCGCGAUAGCGCCAACGUUCUCAACUAUGACACGCAAAACGCGUGCUCCGUUCAAUGGAGUUUAUCAUG,≤ -4.2
2,GGAUCUUCUCGAUCUAACAAAAAAUACAAAUCUGCCACAAAGUUUGAGAGCAUCUUCGGAUGCAGAGGCGUCAGCCUUCGGUGGCGCUAUAGCGCCAACGUUCUCAACUAUGACACGCAAAACGCCUGCUCCGUUGAAUCGAGUUUAUCAUG,≤ -4.2
3,GGAUCUUCUCGAUCUAACAAAAAAUACAAAUCUGCCACAAAGUUCGGGAGCAUCUUCGGAUGCAGAGGCCGCAGCCUUCGGUGGCGCGAUAGCGCAAACGUUCUCAACUAUGACACGCAAAACGCGUGCUCCGUUGAAUGGAGUUUAUCAUG,≤ -4.2
4,GGAUCUUCUCGAUCUAACAAAAAAUACAAAUCUGCCACAAAGUUUGAGAGCAACUUCGGAUGCAGAGGCGGCAGCUUUCGGUGGCGCGAUAGUGCCAACGUUCUCAACUAUGACACGCAUAACGCGUGCUCCGUUGAAUGGAGUUUAUCAUG,≤ -4.2
5,GGAUCUUCUCGAUCUAACAAAAAAUACAAAUCUGCCACAAAGCUUGAGAGCAUAUUCGGAUGCAGAGGCGGCAGCCUUCGGUGGCGUAAUAGCGCCAACGUGCUCAACUAUGACAUGCAAAACGCGUGCUCCGUUGAAUCGAGUUUAUCAUG,≤ -4.2
6,GGAUCUUCUCGAUCUAACAAAAAAUACAAAUCUGCCACAAAGCUUGAGAGCAUCUUGGGAUGCAGAGGCGGCAGUCUUCGGUGGCGCGAUAGCGCCAACGUUCUUACCUAUGACACGCAAAACGCGUGCUCCGUUGAAUGGAGUUUAUCAUG,≤ -4.2
7,GGAUCUUCUCGAUCUAACAAAAAAUACAAAUCUGCCACAAAGCUUGAGAGCAUCUUCGGAUGGAGAGGCGGCAGCCUUCGGUGGCGCCAUAGCGCCAACGUUCUCAAUUAUGACACGCAAAACGCGUGCUCCGUUGAAUGGAGUUUAUCAUG,-3.94
8,GGAUCUUCUCGAUCUAACAAAAAAUACAAAUCUGCCACAAAGCUUGAGAGCAUCUUCGGAUGCAGAGGGGGCAGCCUUCGGUUGCGCGAUAGCGUCAACGUUCUCAACUAUGACACGCAAAACGCGUGCUCCGUUGAAUGGAGUUUAUCAUU,≤ -4.2
9,GGAUCUUCUCGAUCUAACAAAAAAUACAAAUCUGCCACAAAGCUUGAGAGCAUCUUCGGAUGCAGAGGCGGCAGGCUUCGGUGGAGCGAUAGCGUCAACGUUCUCAACCAUGACACGCAAAACGCGUGCUCCGUUGAAUCGAGUUAAUCAUG,≤ -4.2
10,GGAUCUUCUCGAUCUAACAAAAAAUACAAAUCUGCCACAAAGCUUGAGAGCAUCUUCGGAUGCAGAGGCGGCAGCGUUCGGUUGCGCGAUAGCGCCAACGUUCUCAACUAUGACACGCAAAACGCGUGCUCCGUUGACUGGAGUUUAUCAUG,≤ -4.2
11,GGAUCUUCUCGAUCUAACAAAAAAUACAAAUCUGCCACAAAGCUUGAGAGCAUCUUCGGAUGCAGAGGCGGCAGCGUUCGGUGGCGCGAUAACGCCAACGUUCUCAACUAUGACACGCUAAACGCGUGCUCCGUUGAAUGGAGUAUAUAAGG,≤ -4.2
12,GGAUCUUCUCGAUCUAACAAAAAAUACAAAUCUGCCACAAAGCUUGAGAGCAUCUUCGGAUGCAGAGGCGGCAGCCUUUGGUGGCGCGAUAGCUACAACGUUCUCAACUAUGACACGCAAAACGCGUGCUCCGUUGAAUGGAAUUUAUCAUG,≤ -4.2
13,GGAUCUUCUCGAUCUAACAAAAAAUACAAAUCUGCCACAAAGCUUGAGAGCAUCUUCGGAUGCAGAGGCGGCAGCCUUCGGUGGCGCGAUAGAGCCAACGUUCUCAACUAUGACACGCAAAACGCGUGCUCCGUUGAAUGGAGUUUGUCAUG,≤ -4.2
14,GGAUCUUCUCGAUCUAACAAAAAAUACAAAUCUGCCACAAAGCUUGAGAGCAUCUUCGGAUGCAGAGGCGGCAGCCUUCGGUGGCGCGAUAGGGCCAACGUUCUCAACUAUGACACGCAAAACGCGUGCUCCGUUGAAUGGAGUUUAUCAUG,≤ -4.2
15,GGAUCUUCUCGAUCUAACAAAAAAUACAAAUCUGCCACAAAGCUUGAGAGCAUCUUCGGAUGCAGAGGCGGCAGCCUUCGGUGGCGCGAUAGCGCCAAAGUUCGCAACUAUGACACGCAAAACGCGUGCUCCGUUGAAUGGAGUUUAUCAUG,≤ -4.2
16,GGAUCUUCUCGAUCUAACAAAAAAUACAAAUCUGCCACAAAGCUUGAGAACAUCUUCGGAUGCAGAGGCGGCAGCCUUCGGUGGCGCGAUAGCGACAACGUUCUAAACUAUGAUAAGCAAAACGCGUGCUCCGUUGAAUGGAGUUUAUCAUG,≤ -4.2
17,GGAUCUUCUCGAUCUAACAAAAAAUACAAAUCUGCCACAAAGCUUGAGAGCAUCUUCCGAUGCAGAGGCGGCAGCCUUCGGUGGCGCGAUAGCUCCAACGUUCUCAACUAUGACACGCAAAACGCGUGCUCCGUUUAAUGGAGUUUAUCAUG,≤ -4.2
18,GGAUCUUCUCGAUCUAACAAAAAAUACAAAUCUGCCACAAAGCUUGAGAGCAUCUUCUGAUGCAGAGGCGGCAGCCUUCGGUGGCGCGAUAGCGCCCACGUUCUCAACUAUGACACGCAAAACGCGUGCUCCGUUGAAUGGAGUUUAUCAUG,-2.23
19,GGAUCUUCUCGAUCUAACAAAAAAUACAAAUCUGCCACAAAGCUUGAGAGCAUCUUCGCAGGCAGAGGCGGCAGCCUUCGGUGGCGCGAUAGCGCCAACGUUCUCAACUAUGUCACGCAAAACGCGUGCUCCGUUGAAUGGAGUUUAUCAUG,≤ -4.2

# Source: the RNAGym collection of RNA variant scans (doi:10.1073/pnas.2313332121)
